Binding signal data for 32 sequences are collected here from publication PMC12820563, “FoxP3 forms a head-to-head dimer in vivo and stabilizes its multimerization on adjacent microsatellites”.

Some of the results follow.

For this test, the target named is T1, MBP-FoxP1dN (Mus musculus, UniProt P58462 326-579).
T1 sequence: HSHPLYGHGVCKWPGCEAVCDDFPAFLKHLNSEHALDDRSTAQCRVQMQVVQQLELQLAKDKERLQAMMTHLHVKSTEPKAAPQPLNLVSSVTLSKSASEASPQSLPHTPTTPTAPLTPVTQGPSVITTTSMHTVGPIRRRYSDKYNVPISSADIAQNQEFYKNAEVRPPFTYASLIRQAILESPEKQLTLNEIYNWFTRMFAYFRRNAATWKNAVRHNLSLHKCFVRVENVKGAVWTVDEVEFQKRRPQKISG
Put plainly: PD-seq (MBP pull-down with sequencing); 20 mM Tris-HCl pH 7.5, 100 mM NaCl, 1.5 mM MgCl2, 0.4 uM protein, 0.1 uM dsDNA library, 30 min, room temperature, amylose pull-down; high values mean tight binding. The following applies: protein: recombinant; tags: His6-MBP; chain copies: 2; dsDNA, one strand shown. The method, boiled down:
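Binding is given as reads-per-million enrichment, pull-down over input, with replicates pooled. The bait was an N-terminus-lacking mouse FoxP3 or FoxP1 fragment with a His6-MBP tag, expressed in E. coli and used at 0.4 µM with 0.1 µM Klenow-filled degenerate double-stranded DNA library for 30 min at room temperature in Tris pH 7.5 buffer with NaCl and MgCl2. Amylose resin pull-down with three washes was followed by proteinase K release, PCR barcoding and Illumina sequencing.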
For the sequence “GATGATTGTTCTCCCAGCTGATGAATTATCCAACTCGAGTAAACAAATTTTCCTAATCTTTCTGTTCAAGCGCCATCTAC”, the binding signal is 0.939 RPM ratio (pull-down/input).

With “GATGATTGTTCTCCCAGCTGATGAATTAGCCATATCGAGTAAACAAATTTTCCTAATCTTTCTGTTCAAGCGCCATCTAC”, the binding signal is 0.942 RPM ratio (pull-down/input).

As to “GATGATTGTTCTCCCAGCTGATGAATTTAGTACGTCGAGTAAACAAATTTTCCTAATCTTTCTGTTCAAGCGCCATCTAC”, the binding signal was 1.08 RPM ratio (pull-down/input).

With “GATGATTGTTCTCCCAGCTGATGAATTCTAACATTCGAGTAAACAAATTTTCCTAATCTTTCTGTTCAAGCGCCATCTAC”, the binding signal is 1.09 RPM ratio (pull-down/input).

For the sequence “GATGATTGTTCTCCCAGCTGATGAATTCTACGTTTCGAGTAAACAAATTTTCCTAATCTTTCTGTTCAAGCGCCATCTAC”, the binding signal was 0.924 RPM ratio (pull-down/input).

Take “GATGATTGTTCTCCCAGCTGATGAATTTTCACGGTCGAGTAAACAAATTTTCCTAATCTTTCTGTTCAAGCGCCATCTAC”: the binding signal is 0.822 RPM ratio (pull-down/input).

For “GATGATTGTTCTCCCAGCTGATGAATTCAAGCTGTCGAGTAAACAAATTTTCCTAATCTTTCTGTTCAAGCGCCATCTAC”, the binding signal was 0.905 RPM ratio (pull-down/input).

As to “GATGATTGTTCTCCCAGCTGATGAATTATCCTTGTCGAGTAAACAAATTTTCCTAATCTTTCTGTTCAAGCGCCATCTAC”, the binding signal is 0.862 RPM ratio (pull-down/input).

For the sequence “GATGATTGTTCTCCCAGCTGATGAATTATAATTGTCGAGTAAACAAATTTTCCTAATCTTTCTGTTCAAGCGCCATCTAC”, the binding signal was 1.35 RPM ratio (pull-down/input).

For the sequence “GATGATTGTTCTCCCAGCTGATGAATTGTAGGCTTCGAGTAAACAAATTTTCCTAATCTTTCTGTTCAAGCGCCATCTAC”, the binding signal is 0.939 RPM ratio (pull-down/input).

With “GATGATTGTTCTCCCAGCTGATGAATTGCGACTGTCGAGTAAACAAATTTTCCTAATCTTTCTGTTCAAGCGCCATCTAC”, the binding signal was 1.02 RPM ratio (pull-down/input).

Regarding “GATGATTGTTCTCCCAGCTGATGAATTACCATCGTCGAGTAAACAAATTTTCCTAATCTTTCTGTTCAAGCGCCATCTAC”, the binding signal was 0.977 RPM ratio (pull-down/input).

In the case of “GATGATTGTTCTCCCAGCTGATGAATTAATGAGGTCGAGTAAACAAATTTTCCTAATCTTTCTGTTCAAGCGCCATCTAC”, the binding signal was 0.83 RPM ratio (pull-down/input).

Consider “GATGATTGTTCTCCCAGCTGATGAATTCTGGTTCTCGAGTAAACAAATTTTCCTAATCTTTCTGTTCAAGCGCCATCTAC”, for which the binding signal is 0.806 RPM ratio (pull-down/input).

Take “GATGATTGTTCTCCCAGCTGATGAATTACGGGTTTCGAGTAAACAAATTTTCCTAATCTTTCTGTTCAAGCGCCATCTAC”: the binding signal was 1.06 RPM ratio (pull-down/input).

“GATGATTGTTCTCCCAGCTGATGAATTCTTTTACTCGAGTAAACAAATTTTCCTAATCTTTCTGTTCAAGCGCCATCTAC”: the binding signal was 0.857 RPM ratio (pull-down/input).

As to “GATGATTGTTCTCCCAGCTGATGAATTGAATAGTTCGAGTAAACAAATTTTCCTAATCTTTCTGTTCAAGCGCCATCTAC”, the binding signal is 0.895 RPM ratio (pull-down/input).

In the case of “GATGATTGTTCTCCCAGCTGATGAATTAAAATCTTCGAGTAAACAAATTTTCCTAATCTTTCTGTTCAAGCGCCATCTAC”, the binding signal was 0.925 RPM ratio (pull-down/input).

Take “GATGATTGTTCTCCCAGCTGATGAATTCACCCTATCGAGTAAACAAATTTTCCTAATCTTTCTGTTCAAGCGCCATCTAC”: the binding signal is 0.854 RPM ratio (pull-down/input).

Take “GATGATTGTTCTCCCAGCTGATGAATTAGGATACTCGAGTAAACAAATTTTCCTAATCTTTCTGTTCAAGCGCCATCTAC”: the binding signal was 0.974 RPM ratio (pull-down/input).

With “GATGATTGTTCTCCCAGCTGATGAATTGCAACTCTCGAGTAAACAAATTTTCCTAATCTTTCTGTTCAAGCGCCATCTAC”, the binding signal is 1.51 RPM ratio (pull-down/input).

As to “GATGATTGTTCTCCCAGCTGATGAATTTTTTCAGTCGAGTAAACAAATTTTCCTAATCTTTCTGTTCAAGCGCCATCTAC”, the binding signal is 0.939 RPM ratio (pull-down/input).

For the sequence “GATGATTGTTCTCCCAGCTGATGAATTCGCTCTTTCGAGTAAACAAATTTTCCTAATCTTTCTGTTCAAGCGCCATCTAC”, the binding signal is 0.909 RPM ratio (pull-down/input).

As for “GATGATTGTTCTCCCAGCTGATGAATTACATACCTCGAGTAAACAAATTTTCCTAATCTTTCTGTTCAAGCGCCATCTAC”, the binding signal was 1.11 RPM ratio (pull-down/input).

Take “GATGATTGTTCTCCCAGCTGATGAATTCCGTAATTCGAGTAAACAAATTTTCCTAATCTTTCTGTTCAAGCGCCATCTAC”: the binding signal is 1.02 RPM ratio (pull-down/input).

As for “GATGATTGTTCTCCCAGCTGATGAATTGTAAGGTTCGAGTAAACAAATTTTCCTAATCTTTCTGTTCAAGCGCCATCTAC”, the binding signal was 0.881 RPM ratio (pull-down/input).

Take “GATGATTGTTCTCCCAGCTGATGAATTGAAGTCCTCGAGTAAACAAATTTTCCTAATCTTTCTGTTCAAGCGCCATCTAC”: the binding signal was 0.817 RPM ratio (pull-down/input).

On to “GATGATTGTTCTCCCAGCTGATGAATTCCACCCCTCGAGTAAACAAATTTTCCTAATCTTTCTGTTCAAGCGCCATCTAC”, for which the binding signal is 0.781 RPM ratio (pull-down/input).

Turning to “GATGATTGTTCTCCCAGCTGATGAATTAATCGGCTCGAGTAAACAAATTTTCCTAATCTTTCTGTTCAAGCGCCATCTAC”, the binding signal was 0.83 RPM ratio (pull-down/input).

As to “GATGATTGTTCTCCCAGCTGATGAATTTCGCCTTTCGAGTAAACAAATTTTCCTAATCTTTCTGTTCAAGCGCCATCTAC”, the binding signal was 0.926 RPM ratio (pull-down/input).

On to “GATGATTGTTCTCCCAGCTGATGAATTACCACGGTCGAGTAAACAAATTTTCCTAATCTTTCTGTTCAAGCGCCATCTAC”, for which the binding signal was 0.924 RPM ratio (pull-down/input).

For “GATGATTGTTCTCCCAGCTGATGAATTGCTTTGCTCGAGTAAACAAATTTTCCTAATCTTTCTGTTCAAGCGCCATCTAC”, the binding signal is 1.06 RPM ratio (pull-down/input).
